# Reference: a collection of fitness landscapes (doi:10.1126/science.1257360)
# Some of the results follow.
# B1: PhoQ; a variant is named by its letters at X, in order, P23837 (parent)
# chain: MKKLLRLFFPLSLRVRFLLATAAVVLVLSLAYGMVALIGYSVSFDKTTFRLLRGESNLFYTLAKWENNKLHVELPENIDKQSPTMTLIYDENGQLLWAQRDVPWLMKMIQPDWLKSNGFHEIEADVNDTSLLLSGDHSIQQQLQEVREDDDDAEMTHSVAVNVYPATSRMPKLTIVVVDTIPVELKSSYMVWSWFIYVLSANLLLVIPLLWVAAWWSLRPIEALAKEVRELEEHNRELLNPATTRELTSLVRNLNRLLKSERERYDKYRTTLTDLTHSLKTPLXXLQXXLRSLRSEKMSVSDAEPVMLEQISRISQQIGYYLHRASMRGGTLLSRELHPVAPLLDNLTSALNKVYQRKGVNISLDISPEISFVGEQNDFVEVMGNVLDNACKYCLEFVEISARQTDEHLYIVVEDDGPGIPLSKREVIFDRGQRVDTLRPGQGVGLAVAREITEQYEGKIVAGESMLGGARMEVIFGRQHSAPKDE
# Variants of: B1
# Experiment: enrichment ratio after two sorts for PhoP signalling (ratio (wild type AVST 3.29)); higher = more functional
# Conditions: with PhoP (E. coli)
row,Variant,enrichment ratio
1,SQDL,≤ 0.25
2,SPTG,≤ 0.25
3,IKEL,≤ 0.25
4,SPSH,≤ 0.25
5,WVLY,≤ 0.25
6,SDAQ,≤ 0.25
7,TIAP,≤ 0.25
8,NMAR,≤ 0.25
9,IWIT,≤ 0.25
10,SVCI,10.4
11,VKMN,≤ 0.25
12,NMVK,≤ 0.25
13,AMMG,≤ 0.25
14,FMGY,≤ 0.25
15,IGLH,0.557
16,VAPF,≤ 0.25
17,DKTH,≤ 0.25
18,MGSS,0.306
19,TPDV,≤ 0.25
20,EQFV,≤ 0.25
21,RFLW,≤ 0.25
22,ICPH,≤ 0.25
23,ECRP,≤ 0.25
24,EDAP,≤ 0.25

row,Variant,enrichment ratio
1,WPDL,≤ 0.25
2,LGMV,3.91
3,FRTN,≤ 0.25
4,VGQF,≤ 0.25
5,YNIN,≤ 0.25
6,QSFE,≤ 0.25
7,DRIP,≤ 0.25
8,SHNW,≤ 0.25
9,QHIL,≤ 0.25
10,NTQS,≤ 0.25
11,QNCA,≤ 0.25
12,TKER,≤ 0.25
13,TKIC,4.21
14,YHVQ,≤ 0.25
15,DYNG,≤ 0.25
16,VLNK,≤ 0.25
17,WNVW,≤ 0.25
18,EQYS,≤ 0.25
19,RWWK,≤ 0.25
20,HWEA,≤ 0.25
21,PKVS,≤ 0.25
22,ITQC,≤ 0.25
23,VGHK,≤ 0.25
24,DMSY,≤ 0.25

row,Variant,enrichment ratio
1,FHWA,≤ 0.25
2,ENRG,≤ 0.25
3,AITR,7.38
4,RNLK,≤ 0.25
5,LDSM,≤ 0.25
6,AFNL,≤ 0.25
7,AQLC,5.23
8,KKDM,≤ 0.25
9,WRKD,≤ 0.25
10,EQVM,≤ 0.25
11,THCA,10.9
12,INDT,≤ 0.25
13,HPIK,≤ 0.25
14,FATC,≤ 0.25
15,FYPY,≤ 0.25
16,YACN,≤ 0.25
17,LHNS,≤ 0.25
18,NHHS,≤ 0.25
19,DSHG,≤ 0.25
20,VDPY,≤ 0.25
21,PTEM,≤ 0.25
22,TKFV,0.925
23,QIGW,≤ 0.25
24,FASR,≤ 0.25

row,Variant,enrichment ratio
1,VKDP,≤ 0.25
2,DTNS,≤ 0.25
3,RIFH,≤ 0.25
4,ILHS,≤ 0.25
5,WAIR,≤ 0.25
6,EASA,≤ 0.25
7,DGWV,≤ 0.25
8,HVVH,≤ 0.25
9,KCTA,≤ 0.25
10,RHIC,0.278
11,PRYT,≤ 0.25
12,SHIL,≤ 0.25
13,HKAS,≤ 0.25
14,NYTD,≤ 0.25
15,KFDN,≤ 0.25
16,GLLA,≤ 0.25
17,YTMF,5.8
18,YDDC,≤ 0.25
19,NHKA,≤ 0.25
20,EYND,≤ 0.25
21,YLYQ,≤ 0.25
22,LENV,≤ 0.25
23,SSNK,≤ 0.25
24,WMVK,≤ 0.25

row,Variant,enrichment ratio
1,DWPP,≤ 0.25
2,YRDM,≤ 0.25
3,MGQI,≤ 0.25
4,MGIG,≤ 0.25
5,RINH,≤ 0.25
6,CVSP,≤ 0.25
7,FYQF,≤ 0.25
8,NYDY,≤ 0.25
9,IQWI,≤ 0.25
10,WWYS,≤ 0.25
11,APHR,≤ 0.25
12,YLAP,≤ 0.25
13,RKHI,≤ 0.25
14,VVLP,≤ 0.25
15,DLWL,≤ 0.25
16,KARI,≤ 0.25
17,DKMA,≤ 0.25
18,YSAP,≤ 0.25
19,YFMA,≤ 0.25
20,TDSR,≤ 0.25
21,VCHQ,≤ 0.25
22,LQLS,≤ 0.25
23,EHVN,≤ 0.25
24,NFHF,≤ 0.25

row,Variant,enrichment ratio
1,LIYM,≤ 0.25
2,VHFI,≤ 0.25
3,MDTT,≤ 0.25
4,NRAI,≤ 0.25
5,GTLT,3.12
6,PKGC,≤ 0.25
7,VVGR,≤ 0.25
8,MFDK,≤ 0.25
9,QRIR,≤ 0.25
10,YAHK,≤ 0.25
11,TTPN,≤ 0.25
12,PEFK,≤ 0.25
13,VQQA,≤ 0.25
14,ANYP,≤ 0.25
15,EEML,≤ 0.25
16,MFGD,≤ 0.25
17,HYFD,≤ 0.25
18,MIWY,≤ 0.25
19,WPLT,≤ 0.25
20,YFWM,≤ 0.25
21,MCHS,≤ 0.25
22,TYDI,≤ 0.25
23,ASQG,1.16
24,VFKQ,≤ 0.25

row,Variant,enrichment ratio
1,FGQP,≤ 0.25
2,PGGY,≤ 0.25
3,IVKH,≤ 0.25
4,NHEM,≤ 0.25
5,IRCF,≤ 0.25
6,NWMW,≤ 0.25
7,SRGC,≤ 0.25
8,PIMS,≤ 0.25
9,ESAT,≤ 0.25
10,HHDM,≤ 0.25
11,NQCL,≤ 0.25
12,QNLC,≤ 0.25
13,HKKC,≤ 0.25
14,WPIK,≤ 0.25
15,ANLW,9.25
16,WAGH,≤ 0.25
17,KQLC,≤ 0.25
18,MWRD,≤ 0.25
19,RDAG,≤ 0.25
20,FFIS,≤ 0.25
21,TGFN,≤ 0.25
22,ETWR,≤ 0.25
23,KDSW,≤ 0.25
24,TTER,≤ 0.25

row,Variant,enrichment ratio
1,GYIG,≤ 0.25
2,NFHN,≤ 0.25
3,WQSG,≤ 0.25
4,EDFQ,≤ 0.25
5,DYIT,≤ 0.25
6,KQSI,≤ 0.25
7,SRHM,≤ 0.25
8,PQVL,≤ 0.25
9,LSGK,≤ 0.25
10,VWCM,≤ 0.25
11,TVFP,≤ 0.25
12,KNSQ,≤ 0.25
13,IHYQ,≤ 0.25
14,DTQM,≤ 0.25
15,HLIW,≤ 0.25
16,KREL,≤ 0.25
17,QRYS,≤ 0.25
18,LRKP,≤ 0.25
19,EYYM,≤ 0.25
20,ELMW,≤ 0.25
21,TWPP,≤ 0.25
22,GLPQ,≤ 0.25
23,CIFA,≤ 0.25
24,STHD,≤ 0.25

row,Variant,enrichment ratio
1,SDQW,≤ 0.25
2,MGAA,6.5
3,VWRG,≤ 0.25
4,VGQH,≤ 0.25
5,YNNY,≤ 0.25
6,GLKY,≤ 0.25
7,LAGQ,≤ 0.25
8,HNAV,≤ 0.25
9,DNMH,≤ 0.25
10,EMDW,≤ 0.25
11,SQCT,10.1
12,TTFW,≤ 0.25
13,DVMF,≤ 0.25
14,PLSM,≤ 0.25
15,MLRQ,≤ 0.25
16,IHKH,≤ 0.25
17,HFWF,≤ 0.25
18,WNYN,≤ 0.25
19,LYNV,≤ 0.25
20,WYTG,≤ 0.25
21,AHDM,≤ 0.25
22,RKVC,≤ 0.25
23,LSTL,≤ 0.25
24,WQTF,≤ 0.25

row,Variant,enrichment ratio
1,SQPL,≤ 0.25
2,TCVY,≤ 0.25
3,FDLH,≤ 0.25
4,PNLT,≤ 0.25
5,TQII,15.7
6,YTGG,≤ 0.25
7,DNPM,≤ 0.25
8,YLPN,≤ 0.25
9,ECYN,0.622
10,VLRK,≤ 0.25
11,IGVV,≤ 0.25
12,WKNL,≤ 0.25
13,VFSR,≤ 0.25
14,FHYP,≤ 0.25
15,KGMF,≤ 0.25
16,ECIW,≤ 0.25
17,ESNL,≤ 0.25
18,GQME,6.91
19,ICTV,≤ 0.25
20,AQYH,≤ 0.25
21,EHCS,≤ 0.25
22,QYGD,≤ 0.25
23,GTVF,5.57
24,VLLW,≤ 0.25

row,Variant,enrichment ratio
1,WYQF,≤ 0.25
2,QQFC,5.39
3,WKLI,≤ 0.25
4,NLQL,≤ 0.25
5,THTS,1.63
6,YPIT,≤ 0.25
7,WYTR,≤ 0.25
8,RSYK,≤ 0.25
9,EDFY,≤ 0.25
10,YHTH,≤ 0.25
11,GWYL,≤ 0.25
12,NPYF,≤ 0.25
13,PFAG,≤ 0.25
14,EAIW,≤ 0.25
15,WSRP,≤ 0.25
16,IDSW,≤ 0.25
17,YSQR,≤ 0.25
18,DKVG,≤ 0.25
19,PCMF,≤ 0.25
20,VECS,3.02
21,PPEF,≤ 0.25
22,PVVS,≤ 0.25
23,WTAA,≤ 0.25
24,NFES,≤ 0.25

row,Variant,enrichment ratio
1,PKCM,≤ 0.25
2,IHVE,≤ 0.25
3,SVEV,≤ 0.25
4,PGPW,≤ 0.25
5,SHVE,≤ 0.25
6,KLWW,≤ 0.25
7,RGCE,≤ 0.25
8,HQIP,≤ 0.25
9,SPAD,≤ 0.25
10,RDGI,≤ 0.25
11,EKVF,≤ 0.25
12,TMQC,8.16
13,FLDD,≤ 0.25
14,HHTD,≤ 0.25
15,PADV,≤ 0.25
16,QISL,1.56
17,SYSM,≤ 0.25
18,QQTK,≤ 0.25
19,YMVH,≤ 0.25
20,NLRK,≤ 0.25
21,FCWE,≤ 0.25
22,NPPP,≤ 0.25
23,WTKC,≤ 0.25
24,INAM,2.33

row,Variant,enrichment ratio
1,DWNN,≤ 0.25
2,DGRR,≤ 0.25
3,YRET,≤ 0.25
4,IAQE,≤ 0.25
5,QGRF,≤ 0.25
6,SNGA,5.84
7,IRFH,≤ 0.25
8,HFVK,≤ 0.25
9,FHKL,≤ 0.25
10,MMKY,≤ 0.25
11,YHIT,≤ 0.25
12,YNHM,≤ 0.25
13,HYCR,≤ 0.25
14,FWMS,≤ 0.25
15,RHER,≤ 0.25
16,SSAV,12.9
17,PPTI,≤ 0.25
18,DSIF,≤ 0.25
